Reference: paper PMC11995724, “Antibiotic target discovery by integrated phenotypic and activity-based profiling of electrophilic fragments” (Cell chemical biology, 2025)
Among all 3,200 compounds or so, about 75 (2%) showed an effect of 50% or more. The list shows a part of the results.

test system: T1, S. aureus MSSA476; design: species or system S. aureus MSSA476 (TSB) or V. cholerae SAD30 (LB); 384-well bacterial growth screen at 25 uM, OD600 relative to DMSO control; settings: relative growth, OD600, TSB; 25 µM; inhibitor
T1 construct: MSSA476

Question: For C=CC(=O)NCC1CCCCN1S(C)(=O)=O (stereo not drawn) [1-D17, N-[(1-methanesulfonylpiperidin-2-yl)methyl]prop-2-enamide], which “% of control remaining” value is on record?
Answer: The value was 114.989%.

Question: Which “% of control remaining” value does the source give for CC(Cl)C(=O)N(C)C1CS(=O)(=O)c2ccc(Cl)cc21 (stereo not drawn) [7-M14, 2-chloro-N-(5-chloro-1,1-dioxo-2,3-dihydro-1lambda6-benzothiophen-3-yl)-N-methylpropanamide] here?
Answer: The value was 73.7834%.

Question: With C=CC(=O)Nc1c(C)ccc(Cl)c1CO [1-O03, N-[3-chloro-2-(hydroxymethyl)-6-methylphenyl]prop-2-enamide] as the compound, how does the “% of control remaining” value read?
Answer: The value was 98.4615%.

Question: How did the “% of control remaining” value turn out when CC(C)N(Cc1ccc(N(C)C)cc1)C(=O)CCl [5-E06, 2-chloro-N-{[4-(dimethylamino)phenyl]methyl}-N-(propan-2-yl)acetamide] was run?
Answer: Its value is 95.4463%.

Question: COc1ccc(C=C(C#N)C(=O)NCc2ccco2)cc1 [8-J12, 2-cyano-N-[(furan-2-yl)methyl]-3-(4-methoxyphenyl)prop-2-enamide] was tested. Which “% of control remaining” value did it give?
Answer: The value was 136.432%.

Question: How did the “% of control remaining” value turn out when COc1cc(C=C(C#N)C(=O)Nc2cccc3ncccc23)ccc1O [9-F22, 2-cyano-3-(4-hydroxy-3-methoxyphenyl)-N-(quinolin-5-yl)prop-2-enamide] was run?
Answer: The value was 96.779%.

Question: For O=C(CCl)NC(c1ccc(F)cc1)c1cccs1 (stereo not drawn) [4-K18, 2-chloro-N-[(4-fluorophenyl)(thiophen-2-yl)methyl]acetamide], which “% of control remaining” value is on record?
Answer: Its value is 119.295%.

Question: With CCCCNC(=O)C(C#N)=Cc1ccc(F)cc1F [8-H14, N-butyl-2-cyano-3-(2,4-difluorophenyl)prop-2-enamide] as the compound, how does the “% of control remaining” value read?
Answer: Its value is 87.9668%.

Question: How did the “% of control remaining” value turn out when CSc1cccc(-n2c(C)cc(C(=O)CCl)c2C)c1 [10-J16, 2-chloro-1-{2,5-dimethyl-1-[3-(methylsulfanyl)phenyl]-1H-pyrrol-3-yl}ethan-1-one] was run?
Answer: The value was 12.8125%.

Question: With C=CC(=O)N(CC)c1cccc(C)c1 [1-A10, N-ethyl-N-(3-methylphenyl)prop-2-enamide] as the compound, how does the “% of control remaining” value read?
Answer: Its value is 107.253%.

Question: Which “% of control remaining” value does the source give for C=CC(=O)NC1c2cccc(F)c2CCC1C (stereo not drawn) [1-B21, N-(5-fluoro-2-methyl-1,2,3,4-tetrahydronaphthalen-1-yl)prop-2-enamide] here?
Answer: Its value is 123.429%.

Question: For CC(Cl)C(=O)N1CCCC1c1cccc2c1OCCO2 (stereo not drawn) [7-L11, 2-chloro-1-[2-(2,3-dihydro-1,4-benzodioxin-5-yl)pyrrolidin-1-yl]propan-1-one], which “% of control remaining” value is on record?
Answer: The value was 83.5165%.

Question: For CC1CN(Cc2ccccc2)CC(C)N(C(=O)C(C)Cl)C1 (stereo not drawn) [5-B21, 1-(4-benzyl-2,6-dimethyl-1,4-diazepan-1-yl)-2-chloropropan-1-one], which “% of control remaining” value is on record?
Answer: The value was 97.6321%.

Question: For O=C(CCl)c1cc(Cl)ccc1Cl [10-E16, 2-chloro-1-(2,5-dichlorophenyl)ethan-1-one], which “% of control remaining” value is on record?
Answer: The value was 80%.

Question: With CC(Cl)C(=O)N[C@H](C)c1cnnn1C (stereo partly drawn) [6-D13, 2-chloro-N-[(1R)-1-(1-methyl-1H-1,2,3-triazol-5-yl)ethyl]propanamide] as the compound, how does the “% of control remaining” value read?
Answer: The value was 89.122%.

Question: Which “% of control remaining” value does the source give for CC(Cl)C(=O)NC(Cc1ccccc1)c1ncco1 (stereo not drawn) [7-E12, 2-chloro-N-[1-(1,3-oxazol-2-yl)-2-phenylethyl]propanamide] here?
Answer: The value was 110.518%.

Question: With O=C(CCl)NCCc1ccc2c(c1)OCCO2 [4-N11, 2-chloro-N-[2-(2,3-dihydro-1,4-benzodioxin-6-yl)ethyl]acetamide] as the compound, how does the “% of control remaining” value read?
Answer: The value was 99.8571%.

Question: With CC(Cl)C(=O)NC(Cn1cncn1)c1ccccc1 (stereo not drawn) [7-M09, 2-chloro-N-[1-phenyl-2-(1H-1,2,4-triazol-1-yl)ethyl]propanamide] as the compound, how does the “% of control remaining” value read?
Answer: The value was 75.3532%.

Question: C=CC(=O)NC(C)c1cnc(C(F)(F)F)s1 (stereo not drawn) [2-A05, N-{1-[2-(trifluoromethyl)-1,3-thiazol-5-yl]ethyl}prop-2-enamide] was tested. Which “% of control remaining” value did it give?
Answer: Its value is 119.06%.

Question: O=C(CCl)NCC12CCCCC1C2(F)F (stereo not drawn) [5-C18, 2-chloro-N-({7,7-difluorobicyclo[4.1.0]heptan-1-yl}methyl)acetamide] was tested. Which “% of control remaining” value did it give?
Answer: The value was 117.668%.

Question: With C=CC(=O)Nc1ccnn1Cc1cccc(Cl)c1 [1-N14, N-{1-[(3-chlorophenyl)methyl]-1H-pyrazol-5-yl}prop-2-enamide] as the compound, how does the “% of control remaining” value read?
Answer: The value was 96%.

Question: With Cc1ccc(NC(=O)C(C#N)=Cc2cccs2)c(C)c1 [8-D15, 2-cyano-N-(2,4-dimethylphenyl)-3-(thiophen-2-yl)prop-2-enamide] as the compound, how does the “% of control remaining” value read?
Answer: The value was 115.519%.

Question: How did the “% of control remaining” value turn out when N#CC(=Cc1cccs1)C(=O)Nc1ccc(F)cc1 [8-F10, 2-cyano-N-(4-fluorophenyl)-3-(thiophen-2-yl)prop-2-enamide] was run?
Answer: The value was 95.6017%.

Question: With Cc1ccc(NC(=O)N2CCN(C(=O)C(C)Cl)CC2)cc1Cl (stereo not drawn) [7-A21, N-(3-chloro-4-methylphenyl)-4-(2-chloropropanoyl)piperazine-1-carboxamide] as the compound, how does the “% of control remaining” value read?
Answer: The value was 92.9356%.

Question: N#CC(=Cc1ccc2c(c1)OCO2)C(=O)NCc1ccco1 [9-A15, 3-(1,3-dioxaindan-5-yl)-2-cyano-N-[(furan-2-yl)methyl]prop-2-enamide] was tested. Which “% of control remaining” value did it give?
Answer: Its value is 90.7865%.

Question: For C=CC(=O)NCc1ccccc1CN1C(=O)NC2(CCCCC2)C1=O [2-O11, N-{[2-({2,4-dioxo-1,3-diazaspiro[4.5]decan-3-yl}methyl)phenyl]methyl}prop-2-enamide], which “% of control remaining” value is on record?
Answer: Its value is 95.7354%.

Question: How did the “% of control remaining” value turn out when C=CC(=O)Nc1ccnc(OC)c1 [2-F21, N-(2-methoxypyridin-4-yl)prop-2-enamide] was run?
Answer: Its value is 114.534%.

Question: With CCNC(=O)C(C#N)=Cc1ccc(O)c(OCC)c1 [8-O09, 2-cyano-3-(3-ethoxy-4-hydroxyphenyl)-N-ethylprop-2-enamide] as the compound, how does the “% of control remaining” value read?
Answer: Its value is 121.494%.

Question: How did the “% of control remaining” value turn out when O=C(CCl)c1ccccn1 [10-J03, 2-chloro-1-(pyridin-2-yl)ethan-1-one] was run?
Answer: Its value is 51.875%.

Question: Which “% of control remaining” value does the source give for C=CC(=O)NC(C)c1nnnn1-c1ccccc1 (stereo not drawn) [2-I11, N-[1-(1-phenyl-1H-1,2,3,4-tetrazol-5-yl)ethyl]prop-2-enamide] here?
Answer: Its value is 109.661%.
